PubChem BioAssay AID686970 (National Center for Advancing Translational Sciences (NCATS), 2013)
The whole screen tested about 360,000 compounds, of which about 6,000 (1.7%) were called active. The shares of active, inactive and inconclusive entries below differ from those in the screen. The call rests on the fitted dose curve; in most records, active means well fitted cell-killing curve with a large enough effect; inconclusive means small, poorly fitted or top-dose-only effect, or effect the other way; inactive means flat fitted curve, though single readings scatter. Potencies of inconclusive entries are left out as doubtful fits.

Experiment: qHTS for induction of synthetic lethality in tumor cells producing 2HG: qHTS for the HT-1080-NT fibrosarcoma cell line;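 further: NT is the 2HG producing partner of a matched IDH1 knockdown line; nearly all actives have a fitted effect of over 55% in size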;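 on activity, negative = less viability: 0% = DMSO-treated cells and -100% = media-only wells without cells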
Details: HT-1080-NT fibrosarcoma viability, CellTiter-Glo ATP luminescence, 48 h; activity, negative = less viability: at 46.1 µM (top of the series) unless noted
How it was run: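 Viability by CellTiter-Glo luminescence after 48 h compound exposure at 37C of HT-1080-NT cells (750/well, RPMI, 5% FBS). % activity scaled between DMSO wells and medium-only wells, then curve-fitted and categorized by curve class.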
Potency means the concentration at half of the fitted maximal effect; tags describe the fitted curve by direction and shape.

| Structure (SMILES) | Potency | activity, negative = less viability |
| --- | --- | --- |
| CC(C)(C)c1ccc(C(=O)NCCC(=O)NCc2cccs2)cc1 | inconclusive [cytotoxic, single point] | – |
| COc1cccc2c1C(=O)c1c(O)c3c(c(O)c1C2=O)C[C@@](O)(C(C)=O)C[C@@H]3O[C@H]1C[C@H](N)[C@H](O)[C@H](C)O1 | active: 0.0731 µM | – |
| CC1(C)CN(c2ccccc2)N(C(=O)c2ccc(C#N)cc2)C1=O | inconclusive [cytotoxic, partial curve] | – |
| O=C(CSc1ncnc2c1nnn2Cc1ccc(F)cc1)NCC1CCCO1 (stereo not drawn) | inconclusive [cytotoxic, single point] | – |
| O=C(CCc1ccccc1)NC(=S)Nc1cc(C(F)(F)F)ccc1N1CCOCC1 | inconclusive [cytotoxic, single point] | – |
| O=C(NCc1cccs1)C1CCN(c2ccc(S(=O)(=O)N3CCOCC3)cc2Cl)CC1 | inconclusive [cytotoxic, full curve] | – |
| CC(C)Oc1ccc(C(=O)Nc2nc3ccccc3[nH]2)cc1 | inconclusive [cytotoxic, single point] | – |
| CCOC(=O)N1CCN(C(=O)CCc2ccc(S(=O)(=O)NCCc3ccccc3)cc2)CC1 | inactive | – |
| CCOc1ccccc1CNC(=O)c1ccc(NC(=O)C2=C(C)OCCS2)cc1 | inconclusive [rising, partial curve] | – |
| O=C1CN(c2nc(-c3cccs3)nc3sc4c(c23)CCCC4)CCN1 | inconclusive [cytotoxic, single point] | – |
| CCCCNC(=O)C1(C)CCN1C(=O)c1ccccc1Br (stereo not drawn) | inactive | – |
| COc1ccc(-n2nnnc2C(c2ccccc2)N2CCN(C/C=C/c3ccccc3)CC2)cc1 (stereo not drawn) | inconclusive [cytotoxic, single point] | – |
| Ic1ccc(N2CCN(Cc3c[nH]c4ncccc34)CC2)cc1 | inconclusive [cytotoxic, single point] | – |
| Cc1ccc(C(=O)c2c(C)oc3c2C(=O)C(=O)c2ccccc2-3)cc1 | inconclusive [cytotoxic, single point] | – |
| OC(c1ccc(F)c(F)c1)c1nc(-c2ccc(F)c(Cl)c2)cs1 (stereo not drawn) | inactive | – |
| COCC(=O)N1CCC(Oc2ccc(C(=O)N(C)Cc3nccs3)cc2)CC1 | inactive | – |
| Cc1cc(C2=NNC(=NC3CC3)SC2)c(C)n1Cc1ccco1 | active: 7.31 µM | – |
| OC(c1ccccc1)(c1ccccc1)c1nccc2ccccc12 | inactive | – |
| O=C(NC(=O)N1CCN(c2cccc(Cl)c2)CC1)c1ccc(Cl)cc1 | inconclusive [cytotoxic, partial curve] | – |
| CC1=NN(c2ccc(Cl)cc2)C(=O)C1C(c1cccc(O)c1)c1c(C)[nH]n(-c2ccc(Cl)cc2)c1=O (stereo not drawn) | active: 16.4 µM | – |
| COc1ccc(NC(=O)c2cccnc2)c([N+](=O)[O-])c1 | inconclusive [cytotoxic, single point] | – |
| Cc1cccc(CSC2=NCCN2C(=O)c2ccco2)c1 | inconclusive [rising, single point] | – |
| FC(F)(F)c1cccc(NC(=S)Nc2ccc(Cl)cc2Cl)c1 | inconclusive [cytotoxic, single point] | – |

| Structure (SMILES) | Potency | activity, negative = less viability |
| --- | --- | --- |
| Cc1ccc2c(C)nc(Nc3nc(CSc4nnc(C)s4)cc(=O)[nH]3)nc2c1 | inconclusive [cytotoxic, single point] | – |
| O=C1OC(c2ccccc2)(N(Nc2ccccc2)c2ccccc2)c2ccccc21 (stereo not drawn) | inconclusive [cytotoxic, single point] | – |
| COc1ccc(CNC(=O)COC(=O)/C=C/c2cccc(Br)c2)cc1 | inactive | – |
| COc1ccc(CNc2nc(S(=O)(=O)c3ccccc3)c(Cl)s2)cc1OC | inconclusive [cytotoxic, single point] | – |
| CCOC(=O)CSC1=C(C#N)C(c2ccco2)C(C(=O)Nc2cccc(C(F)(F)F)c2)=C(C)N1 (stereo not drawn) | inconclusive [cytotoxic, single point] | – |
| COc1ccc(CNC(=O)c2cc(S(=O)(=O)N3CCCCC3)ccc2N2CCOCC2)cc1OC | inactive | – |
| Cn1c(CCNC(=O)c2ccccc2)nc2cc(NC(=O)C3CCCCC3)ccc21 | inconclusive [cytotoxic, single point] | – |
| COc1ccccc1NC(=O)CN1CCN(c2ccc(F)cc2)CC1 | inactive | – |
| CSc1ncccc1C(=O)Nc1ccc(OC(F)(F)F)cc1 | inactive | – |
| O=C(N/N=C/c1ccc2c(c1)OCO2)c1ccc2c(c1)OCCO2 | inconclusive [cytotoxic, single point] | – |
| CCOC(=O)C1(C)CCCN(C(=O)C(c2ccccc2)c2ccccc2)C1 (stereo not drawn) | inactive | – |
| CCc1ccc(-n2c(SCc3cc(=O)n4cc(Br)ccc4n3)nc3[nH]ncc3c2=O)cc1 | inconclusive [cytotoxic, partial curve] | – |
| O=C(Nc1ccccc1N1CCCC1)c1ccc([N+](=O)[O-])o1 | inconclusive [cytotoxic, partial curve, poor fit] | – |
| O=C1Nc2ccc(Br)cc2C1=Nc1cccnc1 | inconclusive [cytotoxic, partial curve] | – |
| CN1C/C(=C/c2cccnc2)C(=O)/C(=C/c2cccnc2)C1 | inconclusive [cytotoxic, full curve] | – |
| CCN(CC)S(=O)(=O)c1cccc(C(=O)N/N=C(\C)c2ccc(O)cc2O)c1 | inconclusive [cytotoxic, single point] | – |
| COc1ccccc1OCc1ccc(C(=O)NCC(C)C)o1 | inactive | – |
| COCC(C)n1c(SCc2nc3ccccc3c(=O)[nH]2)nc2ccccc2c1=O (stereo not drawn) | inconclusive [cytotoxic, full curve, poor fit] | – |
| O=C(O)c1ccccc1-c1ccccc1C(=O)Nc1ccc2c(c1)oc(=O)c1ccccc12 | inconclusive [cytotoxic, partial curve, poor fit] | – |
| Cc1ccc(Cn2c(=N)c(C(=O)NCCN3CCOCC3)cc3c(=O)n4ccccc4nc32)cc1 | inactive | – |
| COc1ccc(CCn2c(Br)nc3c2c(=O)[nH]c(=O)n3C)cc1 | inconclusive [cytotoxic, partial curve, poor fit] | – |
| O=C1[C@H]2[C@@H](c3ccccc3)N[C@]3(CCCN(Cc4ccc(C(F)(F)F)cc4)C3=O)[C@H]2C(=O)N1Cc1ccccc1 | inconclusive [cytotoxic, single point] | – |
| Fc1cccc(Cc2c(-c3ccccc3)nc3ccc(Br)cn23)c1 | inconclusive [cytotoxic, single point] | – |

| Structure (SMILES) | Potency | activity, negative = less viability |
| --- | --- | --- |
| Cc1ccc(-c2n[nH]c(=S)n2Cc2ccccc2)cc1 | inconclusive [cytotoxic, single point] | – |
| COc1cccc(-c2cnc3c(NC(C)=O)cc(-c4cccc(C(=O)NCCN(C)C)c4)cn23)c1 | active: 16.4 µM | – |
| COc1ccc(-n2c(-c3ccc(Cl)cc3)c[n+]3c2CCc2ccccc2-3)cc1 | active: 23.1 µM | – |
| CC1CCN(c2nc3ccc(C(=O)NCCCN4CCCCC4C)cc3s2)CC1 (stereo not drawn) | – | inconclusive: -13.7% [cytotoxic] |
| Nc1cc(S(=O)(=O)Nc2ccc(Cl)cc2)ccc1N1CCOCC1 | inconclusive [cytotoxic, full curve] | – |
| O=C(/C=C/c1ccc(N2CCCCC2)c([N+](=O)[O-])c1)c1ccc(O)cc1 | active: 18.4 µM | – |
| Cc1ccc(N(C)S(=O)(=O)c2cccc(C(=O)NC3CC(C)(C)NC(C)(C)C3)c2)cc1 | inconclusive [cytotoxic, single point] | – |
| O=C(CN1CCOCC1)Nc1ccc([N+](=O)[O-])cc1Br | inactive | – |
| N/C(=N\OC(=O)CC(c1ccccc1)c1ccccc1)c1cccnc1 | inconclusive [cytotoxic, single point] | – |
| COc1cccc(-c2cnc3c(NC(C)=O)cc(-c4cc(F)ccc4OC)cn23)c1 | inconclusive [cytotoxic, partial curve] | – |
| O=C(Nc1nc(-c2nc3ccccc3s2)cs1)c1ccc(S(=O)(=O)N2CCOCC2)cc1 | inconclusive [cytotoxic, partial curve] | – |
| CCOC(=O)c1c(-c2ccccc2)oc2ccc(OCC(O)CN(C)C)cc12 (stereo not drawn) | active: 25.9 µM | – |
| Clc1cccc2c1Sc1ccccc1CC2N1CCNCC1 (stereo not drawn) | active: 23.1 µM | – |
| COc1cc(/C=C2/CC/C(=C/c3ccc(O)c(OC)c3)C2=O)ccc1O | active: 18.4 µM | – |
| NC(=O)CNC(=O)c1ccc(Cl)cc1 | inactive | – |
| Cc1c(C(=O)N(C)Cc2nc3ccccc3c(=O)[nH]2)oc2ccccc12 | inactive | – |
| CC[C@]12c3[nH]c4ccc(Cl)cc4c3CCN1C(=O)[C@@H](CC(=O)NCc1cccc(C(F)(F)F)c1)C[C@@H]2C(=O)N1CCN(C(=O)C2CC2)CC1 | inconclusive [cytotoxic, single point] | – |
| CCCCn1ccnc1C(=O)c1cccc(S(=O)(=O)N2CC(C)CC(C)C2)c1 (stereo not drawn) | inconclusive [cytotoxic, single point] | – |
| CCc1cccc(N(C)C(N)=Nc2cccc3ccccc23)c1 | inconclusive [rising, partial curve] | – |
| C#Cc1cc(N2CCN(C(=O)c3ccoc3)CC2)n2nc(-c3cccc(Cl)c3)cc2n1 | active: 14.6 µM | – |
| CC(C)N1CCN(Cc2cc(F)ccc2-n2cccn2)CC1CCO (stereo not drawn) | inactive | – |
| COc1ccc(NC(=O)c2cc(C3CCCCN3C(=O)c3ccccc3)on2)c(C)c1 (stereo not drawn) | inactive | – |
